Measurements: patent US20250214977A1, “STAT6 INHIBITORS AND USES THEREOF” (Kymera Therapeutics, Inc., priority 2024, published 2025)

target: T1, biotinylated truncated STAT6 (123-632)-avi (Homo sapiens, UniProt P42226); assay: Homogenous Time-Resolved Fluorescence (HTRF) binding assay; conditions: 0.15 nM biotinylated truncated STAT6 (123-632)-avi, 20 nM fluorescein-labeled probe, 30 minutes at room temperature
T1 sequence (P42226 123-632 limits assumed): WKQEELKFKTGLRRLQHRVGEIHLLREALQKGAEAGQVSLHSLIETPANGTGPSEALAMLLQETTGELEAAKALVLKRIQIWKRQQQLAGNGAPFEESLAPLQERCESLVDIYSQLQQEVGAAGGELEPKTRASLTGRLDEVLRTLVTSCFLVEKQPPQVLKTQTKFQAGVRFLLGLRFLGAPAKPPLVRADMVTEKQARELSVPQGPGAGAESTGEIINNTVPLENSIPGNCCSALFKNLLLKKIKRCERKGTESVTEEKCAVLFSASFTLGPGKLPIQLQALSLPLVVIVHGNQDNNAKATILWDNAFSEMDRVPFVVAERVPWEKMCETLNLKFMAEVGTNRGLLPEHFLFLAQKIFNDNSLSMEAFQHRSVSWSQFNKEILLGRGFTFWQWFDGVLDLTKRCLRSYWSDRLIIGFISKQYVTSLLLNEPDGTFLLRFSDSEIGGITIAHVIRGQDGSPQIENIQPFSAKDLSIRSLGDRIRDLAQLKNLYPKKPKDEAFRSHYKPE

| Substance | IC50 [µM] |
| --- | --- |
| (S)-1-(5-(7-fluoro-2-(4-(5-fluoro-3-methoxypyridin-2-yl)piperazine-1-carbonyl)-4-(1-methylpyrrolidin-3-yl)-1H-indol-6-yl)-3,6-dihydropyridin-1(2H)-yl)-3-(1H-1,2,3-triazol-1-yl)propan-1-one [Example I-811] | < 0.1 |
| (S)-5-(1-(2-formyl-1,2,3,4-tetrahydroisoquinoline-3-carbonyl)-1,2,5,6-tetrahydropyridin-3-yl)-7-(2-methoxyphenyl)-N,N-dimethylbenzofuran-2-carboxamide [Example I-805] | < 0.1 |
| Methyl 5-(3-(5-(2-(dimethylcarbamoyl)benzofuran-5-yl)-1,2,3,6-tetrahydropyridine-1-carbonyl)-2-formyl-1,2,3,4-tetrahydroisoquinolin-5-yl)pent-4-ynoate [Example I-802] | 0.1 to 1 |
